# This is one part of the list.
# Key:
# Assay in all cases: glycan array binding signal (z-score within array); higher = stronger binding
# Settings in all cases: glycan notation: IUPAC condensed, linker removed
# [1] = molecular target: Fuc(a1-3)[Gal3S(b1-4)]Glc6S
# Summary of the method: (§1)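 Negative Z-scores can be read as non-binding. The Z-score is calculated within each array and then averaged across arrays of one protein sequence at different concentrations or buffers and across linkers. Arrays, 3228 in all, were curated from the Consortium for Functional Glycomics database and kept only where the protein sequence was available.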
# [2] = molecular target: Fuc(a1-3)[Gal3S(b1-4)]GlcNAc
# Summary of the method: as §1
# [3] = molecular target: Fuc(a1-3)[Gal3S(b1-4)]GlcNAc6S
# Summary of the method: as §1
# [4] = molecular target: Fuc(a1-3)[GalNAc(b1-4)]GlcNAc
# Summary of the method: as §1
# [5] = molecular target: Fuc(a1-3)[GalNAc(b1-4)]GlcNAc6S
# Summary of the method: as §1
# [6] = molecular target: Fuc(a1-3)[GalNAc3S(b1-4)]GlcNAc
# Summary of the method: as §1
# [7] = molecular target: Fuc(a1-4)GlcNAc
# Summary of the method: as §1
# [8] = molecular target: Fuc(b1-3)GlcNAc
# Summary of the method: as §1
# [9] = molecular target: Gal(a1-2)Gal
# Summary of the method: as §1
# [10] = molecular target: Gal(a1-3)Gal
# Summary of the method: as §1
# [11] = molecular target: Gal(a1-3)Gal(b1-3)GlcNAc
# Summary of the method: as §1
# [12] = molecular target: Gal(a1-3)Gal(b1-3)GlcNAc(b1-2)Man(a1-3)[Gal(a1-3)Gal(b1-3)GlcNAc(b1-2)Man(a1-6)]Man(b1-4)GlcNAc(b1-4)GlcNAc
# Summary of the method: as §1
# [13] = molecular target: Gal(a1-3)Gal(b1-3)GlcNAc(b1-3)GalNAc
# Summary of the method: as §1
# [14] = molecular target: Gal(a1-3)Gal(b1-3)GlcNAc(b1-6)GalNAc
# Summary of the method: as §1
# [15] = molecular target: Gal(a1-3)Gal(b1-3)[Fuc(a1-4)]GlcNAc(b1-2)Man(a1-3)[Gal(a1-3)Gal(b1-3)[Fuc(a1-4)]GlcNAc(b1-2)Man(a1-6)]Man(b1-4)GlcNAc(b1-4)GlcNAc
# Summary of the method: as §1
# [16] = molecular target: Gal(a1-3)Gal(b1-4)Glc
# Summary of the method: as §1
# [17] = molecular target: Gal(a1-3)Gal(b1-4)GlcNAc
# Summary of the method: as §1
# [18] = molecular target: Gal(a1-3)Gal(b1-4)GlcNAc(b1-3)GalNAc
# Summary of the method: as §1
# [19] = molecular target: Gal(a1-3)Gal(b1-4)GlcNAc(b1-6)GalNAc
# Summary of the method: as §1
# [20] = molecular target: Gal(a1-3)Gal(b1-4)[Fuc(a1-3)]GlcNAc
# Summary of the method: as §1
# [21] = molecular target: Gal(a1-3)Gal(b1-4)[Fuc(a1-3)]GlcNAc(b1-2)Man(a1-3)[Gal(a1-3)Gal(b1-4)[Fuc(a1-3)]GlcNAc(b1-2)Man(a1-6)]Man(b1-4)GlcNAc(b1-4)GlcNAc
# Summary of the method: as §1
# [22] = molecular target: Gal(a1-3)GalNAc
# Summary of the method: as §1
# [23] = molecular target: Gal(a1-3)[Gal(a1-4)]Gal(b1-4)GlcNAc
# Summary of the method: as §1
# [24] = molecular target: Gal(a1-4)Gal(b1-3)GlcNAc(b1-2)Man(a1-3)[Gal(a1-4)Gal(b1-3)GlcNAc(b1-2)Man(a1-6)]Man(b1-4)GlcNAc(b1-4)GlcNAc
# Summary of the method: as §1
# [25] = molecular target: Gal(a1-4)Gal(b1-4)Glc
# Summary of the method: as §1
# [26] = molecular target: Gal(a1-4)Gal(b1-4)GlcNAc
# Summary of the method: as §1
# [27] = molecular target: Gal(a1-4)Gal(b1-4)GlcNAc(b1-2)Man(a1-3)[Gal(a1-4)Gal(b1-4)GlcNAc(b1-2)Man(a1-6)]Man(b1-4)GlcNAc(b1-4)GlcNAc
# Summary of the method: as §1
# [28] = molecular target: Gal(a1-4)Gal(b1-4)GlcNAc(b1-3)Gal(b1-4)Glc
# Summary of the method: as §1
# [29] = molecular target: Gal(a1-4)GlcNAc
# Summary of the method: as §1
# [30] = molecular target: Gal(a1-6)Glc
# Summary of the method: as §1
# [31] = molecular target: Gal(b1-2)Gal
# Summary of the method: as §1
# [32] = molecular target: Gal(b1-3)Gal
# Summary of the method: as §1
# [33] = molecular target: Gal(b1-3)Gal(b1-4)GlcNAc
# Summary of the method: as §1
# [34] = molecular target: Gal(b1-3)Gal(b1-4)GlcNAc(b1-2)Man(a1-3)[Gal(b1-3)Gal(b1-4)GlcNAc(b1-2)Man(a1-6)]Man(b1-4)GlcNAc(b1-4)GlcNAc
# Summary of the method: as §1
# [35] = molecular target: Gal(b1-3)GalNAc
# Summary of the method: as §1
# [36] = molecular target: Gal(b1-3)GalNAc(a1-3)[Fuc(a1-2)]Gal(b1-4)Glc
# Summary of the method: as §1
# [37] = molecular target: Gal(b1-3)GalNAc(a1-3)[Fuc(a1-2)]Gal(b1-4)GlcNAc
# Summary of the method: as §1
# [38] = molecular target: Gal(b1-3)GalNAc(b1-3)Gal(a1-4)Gal(b1-4)Glc
# Summary of the method: as §1
binder,measurement,setting,value
"Gal 8 (Homo sapiens), O00214_1 (protein) MMLSLNNLQNIIYNPVIPFVGTIPDQLDPGTLIVIRGHVPSDADRFQVDLQNGSSMKPRADVAFHFNPRFKRAGCIVCNTLINEKWGREEITYDTPFKREKSFEIVIMVLKDKFQVAVNGKHTLLYGHRIGPEKIDTLGIYGKVNIHSIGFSFSSDLQSTQASSLELTEISRENVPKSGTPQLRLPFAARLNTPMGPGRTVVVKGEVNANAKSFNVDLLAGKSKDIALHLNPRLNIKAFVRNSFLQESWGEEERNITSFPFSPGMYFEMIIYCDVREFKVAVNGVHSLEYKHRFKELSSIDTLEINGDIHLLEVRSW",glycan array binding signal (z-score),[1],-0.127
same,glycan array binding signal (z-score),[2],0.108
same,glycan array binding signal (z-score),[3],-0.186
same,glycan array binding signal (z-score),[4],-0.131
same,glycan array binding signal (z-score),[5],-0.207
same,glycan array binding signal (z-score),[6],-0.232
same,glycan array binding signal (z-score),[7],-0.171
same,glycan array binding signal (z-score),[8],-0.095
same,glycan array binding signal (z-score),[9],-0.187
same,glycan array binding signal (z-score),[10],-0.252
same,glycan array binding signal (z-score),[11],0.318
same,glycan array binding signal (z-score),[12],-0.164
same,glycan array binding signal (z-score),[13],-0.079
same,glycan array binding signal (z-score),[14],-0.027
same,glycan array binding signal (z-score),[15],-0.123
same,glycan array binding signal (z-score),[16],0.16
same,glycan array binding signal (z-score),[17],0.403
same,glycan array binding signal (z-score),[18],0.207
same,glycan array binding signal (z-score),[19],0.148
same,glycan array binding signal (z-score),[20],-0.209
same,glycan array binding signal (z-score),[21],-0.137
same,glycan array binding signal (z-score),[22],-0.158
same,glycan array binding signal (z-score),[23],-0.175
same,glycan array binding signal (z-score),[24],-0.207
same,glycan array binding signal (z-score),[25],-0.238
same,glycan array binding signal (z-score),[26],-0.246
same,glycan array binding signal (z-score),[27],-0.178
same,glycan array binding signal (z-score),[28],1.26
same,glycan array binding signal (z-score),[29],-0.248
same,glycan array binding signal (z-score),[30],-0.208
same,glycan array binding signal (z-score),[31],-0.201
same,glycan array binding signal (z-score),[32],-0.185
same,glycan array binding signal (z-score),[33],0.16
same,glycan array binding signal (z-score),[34],1.63
same,glycan array binding signal (z-score),[35],-0.221
same,glycan array binding signal (z-score),[36],1.58
same,glycan array binding signal (z-score),[37],2.17
same,glycan array binding signal (z-score),[38],-0.209
